# Assay results published in publication PMC4336329 (PLoS ONE, 2015).
# The campaign covered roughly 310,000 compounds. About 2,200 (0.71%) showed an effect of 50% or more. The effect is printed as a negative number. This is one part of the list.
# Target: human ether-à-go-go-related gene (hERG) potassium channel (human, UniProt Q12809)
# Test: primary screen, population patch clamp on CHO cells stably expressing hERG
# Sequence of human ether-à-go-go-related gene (hERG) potassium channel (Q12809 whole entry, looked up): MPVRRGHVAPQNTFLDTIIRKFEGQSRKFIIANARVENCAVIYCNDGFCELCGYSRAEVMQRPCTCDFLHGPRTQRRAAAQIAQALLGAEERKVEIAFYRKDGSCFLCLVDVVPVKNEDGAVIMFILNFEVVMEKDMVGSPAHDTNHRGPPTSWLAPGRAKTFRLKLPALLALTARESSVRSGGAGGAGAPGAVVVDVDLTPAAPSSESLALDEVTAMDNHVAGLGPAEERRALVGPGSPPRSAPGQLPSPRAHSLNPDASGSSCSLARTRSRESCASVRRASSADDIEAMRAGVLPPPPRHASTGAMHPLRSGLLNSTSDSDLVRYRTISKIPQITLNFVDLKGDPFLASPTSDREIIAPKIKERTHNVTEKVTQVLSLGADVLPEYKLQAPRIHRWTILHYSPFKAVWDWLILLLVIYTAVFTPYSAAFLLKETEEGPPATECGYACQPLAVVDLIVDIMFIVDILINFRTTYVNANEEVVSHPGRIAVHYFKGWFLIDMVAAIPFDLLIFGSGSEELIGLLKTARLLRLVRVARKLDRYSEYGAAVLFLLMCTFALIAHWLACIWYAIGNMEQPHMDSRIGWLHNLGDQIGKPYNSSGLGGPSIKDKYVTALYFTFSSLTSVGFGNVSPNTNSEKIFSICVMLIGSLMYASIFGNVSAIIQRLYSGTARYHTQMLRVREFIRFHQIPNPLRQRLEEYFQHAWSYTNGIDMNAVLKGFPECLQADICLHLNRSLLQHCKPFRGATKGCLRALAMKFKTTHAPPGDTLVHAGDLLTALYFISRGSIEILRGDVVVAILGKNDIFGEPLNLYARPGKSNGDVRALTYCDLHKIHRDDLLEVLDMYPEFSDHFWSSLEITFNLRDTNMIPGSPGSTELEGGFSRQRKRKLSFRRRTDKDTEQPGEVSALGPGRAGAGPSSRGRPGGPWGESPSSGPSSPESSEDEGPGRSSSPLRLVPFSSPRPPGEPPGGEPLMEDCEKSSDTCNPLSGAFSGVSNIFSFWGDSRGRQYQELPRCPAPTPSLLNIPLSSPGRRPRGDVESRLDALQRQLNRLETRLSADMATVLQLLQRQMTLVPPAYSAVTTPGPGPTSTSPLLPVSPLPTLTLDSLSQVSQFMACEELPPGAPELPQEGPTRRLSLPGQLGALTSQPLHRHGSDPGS
row,Compound,"hERG current change (%, negative = inhibition) at 1uM [%]"
1,N#Cc1nc(-c2cccs2)oc1NCc1ccccc1,4.69
2,O=C(Cn1c(=O)oc2cc(S(=O)(=O)N3CCCCC3)ccc21)N1CCCCC1,13.4
3,N#Cc1c(C(F)(F)F)cc(=O)[nH]c1SCC(=O)O,8.23
4,CSc1ccc2c(c1)C(N1CCN(C)CC1)Cc1ccc(F)cc1S2.O=C(O)/C=C\C(=O)O (centres unmarked),3.82
5,Cc1nc(SCCOc2ccccc2F)[nH]c(=O)c1Cc1ccccc1,22.9
6,O=C(Nc1sc2c(c1C(=O)O)CCC2)c1ccccc1Cl,19.6
7,CCOc1ccccc1C(=O)N[C@H](C(=O)Nc1ccc(OC)c(S(=O)(=O)N2CCOCC2)c1)C(C)C,13.6
8,CC(=O)N1CCN(C(=O)COC(=O)COc2c(C)cc(C)cc2C)CC1,-0.0845
9,CCOC(=O)CSc1nnc(-c2ccccc2)c(-c2ccccc2)n1,10.7
10,COc1ccc(Cl)cc1-c1csc(N)n1,-6.49
11,CCCCCn1c(=O)[nH]c2cc(C(=O)NCc3ccccn3)ccc2c1=O,12.4
12,O=C(Nc1cnn(Cc2ccc(F)cc2)c1)c1cc(-c2cccs2)on1,-2.6
13,COc1ccc(NC(=O)C(=O)Nc2cccc3cccnc23)cc1OC,13.2
14,O=C(CCCN1C(=O)c2cccc3cccc(c23)C1=O)Nc1nccs1,3.95
15,O=C(Nc1cc([N+](=O)[O-])ccc1F)c1ccc2c(c1)OCCO2,12.7
16,CN1CCN(c2ccc(S(C)(=O)=O)cc2[N+](=O)[O-])CC1,1.9
17,COc1ccc(NC(=O)CN(C)C(=O)CCc2nc3cc(S(=O)(=O)N4CCOCC4)ccc3n2C)cc1,2.42
18,COc1ccc(C)cc1NC(=O)C12CCC(C)(C(=O)O1)C2(C)C (centres unmarked),13.4
19,CC(=O)Cc1nsc(NC(=O)c2ccccc2Cl)n1,17.7
20,Cc1nnsc1C(=O)NC(C)c1ccccc1 (centres unmarked),15.7
21,O=C(NC12CC3CC(CC(C3)C1)C2)c1cncc(Br)c1,7.72
22,O=C(O)c1ccc2c(c1)OCCOCCOCCOCCOCCO2,-12.4
23,N#CC1=C(N)Oc2cc(N)ccc2C1c1ccccc1F (centres unmarked),9.19

row,Compound,"hERG current change (%, negative = inhibition) at 1uM [%]"
1,Cc1nc2ccccc2c(=O)n1-n1cnnc1,5.37
2,O=c1oc(/C=C/c2ccc([N+](=O)[O-])s2)nc2ccccc12,15.7
3,CCOc1ccc(-n2c(=O)c3sccc3n(CC(=O)NCCc3ccc(OC)c(OC)c3)c2=O)cc1,3.3
4,COc1ccc(NC(=O)C(=O)NCCC2=CCCCC2)c(OC)c1,8.27
5,COc1ccccc1C(=O)NNC(=O)c1nn(Cc2ccccc2)c(=O)c2ccccc12,-2.4
6,Cn1nnnc1P(=O)(c1ccccc1)c1ccccc1,12.4
7,Cc1cc(NC(=O)CN2CCN(c3ccccn3)CC2)ccc1Br,9.16
8,O=C(CNC(=O)/C(=C\c1ccc(Br)cc1)NC(=O)c1ccccc1)OCc1ccccc1,-48
9,COC(=O)/C(=N\OCc1ccc(C#N)cc1)c1c(C)nn(C)c1C,8.46
10,CCCCSc1cc(=O)n(-c2ccccc2)nc1C(=O)OCC,10.9
11,CCC(=O)N1CN(S(=O)(=O)c2ccc(C)cc2)CC1C (centres unmarked),8.05
12,Cc1ccc(S(=O)(=O)CC(=O)Nc2ccc(S(=O)(=O)Nc3ccccn3)cc2)cc1,13.7
13,Cc1ccc(S(=O)(=O)NCc2ccccc2)cc1C(=O)N1CCCCC1,-1.44
14,O=C(CNc1ccccc1)N/N=C/c1ccc([N+](=O)[O-])o1,-5.9
15,COC(=O)CNC(=O)c1ccccc1[N+](=O)[O-],5.21
16,CC(C)n1c(Nn2cnnc2)nc2ccccc21,-6.85
17,COC(=O)CCN(C1CCCCC1)S(=O)(=O)c1ccc(S(=O)(=O)N2CCCCC2)cc1,2.57
18,C=CCOC(=O)C1=C(C)NC(C)=C(C(=O)OCC=C)C1/C=C/c1ccccc1,2.33
19,O=C(CNC(c1ccccc1)c1ccccc1)Nc1ccccc1-c1ccccc1,6.37
20,O=C(NCc1ccco1)/C(=C/c1ccco1)NC(=O)c1ccc(Br)o1,-0.37
21,CCc1nnc(NS(=O)(=O)c2ccc(NC(=O)CCC(=O)OC)cc2)s1,6.42
22,COc1ccc(CNC(=O)CSc2nc3ccc(C)cc3[nH]2)cc1,8.37
23,CCOC(=O)c1nc(NNC(=O)c2ccc([N+](=O)[O-])cc2)sc1C,5.59

row,Compound,"hERG current change (%, negative = inhibition) at 1uM [%]"
1,COc1cc2cc(CN(Cc3cccs3)C(=S)Nc3cccc(C)c3)c(=O)[nH]c2cc1OC,2.12
2,COC(=O)c1[nH]c2ccccc2c1CN1CCOCC1,9.36
3,Cc1ccc(CNC(=O)NC2CCCCC2)cc1,18.3
4,O=C1c2ccccc2NC(c2ccccc2)N1/N=C/c1ccccc1 (centres unmarked),9.26
5,O=C(c1ccc2c(=O)n(Cc3ccc4c(c3)OCO4)c(=S)[nH]c2c1)N1CCCCC1,-0.608
6,CC1CCCCN1C(=O)CCC(=O)Nc1nnc(C(F)(F)F)s1 (centres unmarked),20.4
7,COCCOc1cc(N2C(=O)CSCC2=O)c(Cl)cc1Cl,-8.18
8,COc1ccc(C(=O)C[n+]2ccc3ccccc3c2C)cc1.[Br-],7.98
9,C=CCc1c(C)[nH]c(=S)c(C#N)c1C,10.4
10,CC1CC=C(c2ccccc2)C(=S)N1 (centres unmarked),8.88
11,CCOC(=O)C1=C(C)Nc2ccccc2N=C1NC(=O)Cc1ccc(Cl)c(Cl)c1,-2.66
12,N/C(=N/OCc1cccc([N+](=O)[O-])c1)c1nonc1N,4.47
13,O=C(Nn1cnnc1)c1cc([N+](=O)[O-])cc([N+](=O)[O-])c1,5.11
14,CCC(c1nnnn1CCOC)N(Cc1ccc(C)cc1)Cc1cc2cc(OC)ccc2[nH]c1=O (centres unmarked),9.8
15,O=C(Nc1ccc(S(=O)(=O)Nc2nccs2)cc1)c1ccc(N2C(=O)c3ccccc3C2=O)cc1,13.6
16,Cc1cccc(C)c1NC(=O)CN1C(=O)CCSc2ccc(S(=O)(=O)N3CCCC3)cc21,14.4
17,COc1cc(NC(=O)C/C(C)=N/NC(=O)C(=O)NCCO)c(OC)cc1Cl,14.4
18,CCN=C1SC(CC(=O)Nc2sc(C)c(C)c2C(=O)OC)C(=O)N1CC (centres unmarked),12
19,CC(=O)N1c2ccc(S(=O)(=O)NCCC(=O)NC3CCCC(C)C3C)cc2CC1C (centres unmarked),7.51
20,CS(=O)(=O)c1ccc2nc(NC(=O)Nc3ccc(Cl)cc3)sc2c1,3.06
21,CCCCc1cc(=O)oc2cc(OCC(=O)N3C[C@H]4C[C@@H](C3)c3cccc(=O)n3C4)c(Cl)cc12,-19.8
22,CN1CCN(c2cc(N3CCNCC3)ccc2[N+](=O)[O-])CC1,9.91
23,O=C(CN1CCN(c2ccccc2O)CC1)Nc1cccnc1Cl,5.97

row,Compound,"hERG current change (%, negative = inhibition) at 1uM [%]"
1,CC(C(N)=O)N1C(=O)NC2(CCCc3ccccc32)C1=O (centres unmarked),16.4
2,CC(=O)NC12CC3CC(C1)CC(C(=O)N1CCN(S(=O)(=O)c4ccccc4[N+](=O)[O-])CC1)(C3)C2,3.99
3,O=C(CN1C(=O)COc2ccccc21)NCC1CCCO1 (centres unmarked),-1.08
4,CCCCN(C)C(=O)c1cn(-c2cccc(OC)c2)c(=O)c2ccccc12,6.07
5,O=C(NCCc1ccc(F)cc1)C(=O)NCC1CCCN1S(=O)(=O)c1cccs1 (centres unmarked),-13.7
6,CN(Cc1ccccc1)S(=O)(=O)c1ccc(Cl)nc1,-0.0446
7,NNc1nc2cc3c(cc2s1)OCCO3,14.4
8,Cc1ccc(NC(=O)c2cc(S(=O)(=O)N3CCCCC3)c[nH]2)cc1C,15.9
9,O=C(OCCC1Oc2cccnc2NC1=O)c1ccc([N+](=O)[O-])cc1 (centres unmarked),10
10,CCOc1ccc(CCNC(=O)c2cnccn2)cc1OCC,13.3
11,CN(NS(=O)(=O)c1cccs1)c1ncc(C(F)(F)F)cc1Cl,9.96
12,CCOC(=O)N1CCN(CC(=O)N2c3ccccc3CC2C)CC1.O=C(O)C(=O)O (centres unmarked),13.6
13,NC(=O)c1ccc(N2CCN(c3ccccc3F)CC2)c([N+](=O)[O-])c1,1.62
14,O=C(NC(=O)c1ccccc1)NC1(C(F)(F)F)OCCO1,4.71
15,CCOC(=O)Cn1nc(C)c2c1CCCC2=O,4.27
16,CC(=O)Nc1c(C)ccc(CNC(=O)COc2cc(C)ccc2C)c1C,2.39
17,O=C(NNC(=O)c1ccc(Br)s1)NC1CCCCC1,22.3
18,Cc1ccc(C2NC(c3ccc(C)cc3)C(C)C(=O)C2C)cc1 (centres unmarked),6.61
19,Cc1ccc2nc(SCC(=O)Nc3ccc(C)c(Cl)c3)nc(=O)n2c1,-9.4
20,COc1cccc2cc(-c3csc(NC(=O)CCC(=O)NCCCN4CCC(C)CC4)n3)c(=O)oc12,3.15
